We go through 27 molecules from PubChem BioAssay AID1745853 (National Center for Advancing Translational Sciences (NCATS), 2022).

Molecules are shown by their SMILES. Some of the results follow. The main result of the screen is listed elsewhere. These columns were measured beside it and carry no call.

Common to all, as to experiment: Primary Screen for Target Class Profiling of Small Molecule Inhibitors of Methyltransferases
Assay [1] concerns the target Glycine N-methyltransferase (Homo sapiens) (UniProt Q14749). The settings on record: purified enzyme, MTase-Glo SAH luminescence; measured here: GNMT inhibition; at 40 µM; stronger effect = lower value. The text has this:
(§1) PI: Matthew D. Hall Ph.D. and Quinlin M. Hanson Ph.D.
(§2) National Center for Advancing Translational Sciences (NCATS)
(§3) National Institute of Health (NIH), Rockville, MD
(§4) Target class profiling (TCP) is a chemical biology approach amenable to investigating understudied biological targets. TCP is achieved by developing a generalizable assay platform and applying it to screen a curated set of compound libraries against representative members of a target class. Small molecule methyltransferases (SMMTase) are a subclass of methyltransferase that act on metabolites to modulate signaling pathways, metabolize xenobiotics, or balance the available methyl pool. We screened four curated libraries totaling 27,574 unique compounds against the SMMTases nicotinamide N-methyltransferase (NNMT), phenylethanolamine N-methyltransferase (PNMT), histamine N-methyltransferase (HNMT), glycine N-methyltransferase (GNMT), catechol O-methyltransferase (COMT), and guanidinoacetate N-methyltransferase (GAMT). The data generated by this TCP can be leveraged for informed tool molecule development. For example, in the associated publication we identified a chemotype of HNMT-selective inhibitors. Additionally, we identified a putative SMMTase-selective inhibitor with potential as a tool molecule for studying broader methyltransferase biology.
(§5) High-through put screening assays were developed at the National Center for Advancing Translational Science (NCATS) for the enzymes NNMT, PNMT, HNMT, GNMT, COMT, and GAMT. Enzymatic activity was measured as a function of SAM cofactor conversion using the MTase Glo kit (Promega) for all enzymes. All assays were performed in 1536-well format with substrates and SAM concentrations at KM values. Enzyme concentration and assay timing were optimized for 10-20% SAM conversion. Initial screening of 27,574 compounds was done as single-point assays using the highest compound concentration (40 uM). […] These compounds were replated in 11-point dose response and assayed against NNMT, PNMT, HNMT, GNMT, COMT, GAMT, and a counter-assay. The IC50 and efficacy (maximal response) values were determined for each dose-response curve. These values are also accounted for in the area under the curve (AUC) values.
(§6) PROTOCOL TABLE (as described by Inglese J, Shamu CE and Guy RK. 2007)
(§7) SEQUENCE No. (e.g., 1, 2, 3, etc.); […] (e.g., Cells, Incubation, Reagent, etc.); VALUE; DESCRIPTION.
(§8) 1; Reagent; 2 uL; SMMTase Enzyme (2x) in reaction buffer, columns 1- 48.
(§9) 2; Reagent; 1 uL; SAM (4x) in reaction buffer, columns 1-48.
(§10) 3; Controls; 23 nL; DMSO in column 4; sinefungin in DMSO (0 uM - 40 uM) in 7-point 1:2 dilution series (n = 2) in column 2.
(§11) 4; Compounds; 23 nL; Columns 5-48.
(§12) 5; Reagent; 1 uL; Substrate (4x) in reaction buffer, columns 2-48.
(§13) 6; Time; 20-30 min; Incubation.
(§14) 7; Reagent; 1 uL; MTase-Glo reagent (5X), columns 1-48.
(§15) 8; Time; 30 min; Incubation.
(§16) 9; Reagent; 5 uL; MTase-Glo Detection reagent, columns 1-48.
(§17) 10; Time; 30 min; Incubation, luminescence evolution.
(§18) 11; Detection; Luminescence; ViewLux uHTS Microplate Imager (PerkinElmer).
(§19) NOTES (numbers refer to Sequence numbers above)
(§20) 1, 2, 5. White Medium Binding Greiner 1536-well plates (Cat #789175-F, Greiner Bio-One, Monroe, NC); Reaction buffer: 50 mM Tris, pH 8.0, 3 mM MgCl2, 1 mM EDTA, 50 mM NaCl, 1 mM DTT, and 0.1 mg/mL BSA. Evaporation was prevented by covering assay plates with metal lids containing holes to allow gas diffusion.
(§21) 1. Six SMMTase were profiled: HNMT, GNMT, PNMT, COMT, NNMT, GAMT
(§22) 5. The corresponding substrate was used for each enzyme: HNMT - 5.3 uM Histamine; GNMT - >500 uM Glycine; PNMT - 16.2 uM Norephinephrine; COMT - 13.7 uM Norephinephrine; NNMT - 3.8 uM Nicotinamide; GAMT - 2.5 uM Guanidinoacetate.6, 8, 10. Room temperature
(§23) 6. Final reaction conditions: 10 nM COMT, 5 uM SAM, 15 uM norepinephrine, 50 mM Tris, pH 8.0, 3 mM MgCl2, 1 mM EDTA, 50 mM NaCl, 1 mM DTT, and 0.1 mg/mL BSA; refer to tables 2 and S1 for specific timing.
8. […]

In assay [2] the target is Guanidinoacetate N-methyltransferase (Homo sapiens) (UniProt Q14353). The conditions noted are these: purified enzyme, MTase-Glo SAH luminescence; measured here: GAMT inhibition; at 40 µM; stronger effect = lower value.
Description: as §1, §2, §3, §4, §5, §6, §7, §8, §9, §10, §11, §12, §13, §14, §15, §16, §17, §18, §19, §20, §21, §22, §23
8. […]

Assay [3] addresses Histamine N-methyltransferase (Homo sapiens) (UniProt P50135). The settings on record: purified enzyme, MTase-Glo SAH luminescence; measured here: HNMT inhibition; at 40 µM; stronger effect = lower value.
Description: as §1, §2, §3, §4, §5, §6, §7, §8, §9, §10, §11, §12, §13, §14, §15, §16, §17, §18, §19, §20, §21, §22, §23
8. […]

Assay [4] deals with Nicotinamide N-methyltransferase (Homo sapiens) (UniProt P40261). The settings on record: purified enzyme, MTase-Glo SAH luminescence; measured here: NNMT inhibition; at 40 µM; stronger effect = lower value.
Description: as §1, §2, §3, §4, §5, §6, §7, §8, §9, §10, §11, §12, §13, §14, §15, §16, §17, §18, §19, §20, §21, §22, §23
8. […]

Assay [5] has as its target Phenylethanolamine N-methyltransferase (Homo sapiens) (UniProt P11086). The settings on record: purified enzyme, MTase-Glo SAH luminescence; measured here: PNMT inhibition; at 40 µM; stronger effect = lower value.
Description: as §1, §2, §3, §4, §5, §6, §7, §8, §9, §10, §11, §12, §13, §14, §15, §16, §17, §18, §19, §20, §21, §22, §23
8. […]
% is scaled to controls: 0 for no effect and ±100 for the full control effect.

In the case of `O=C(Nc1ccc(F)c(C(F)(F)F)c1)Nc1nnc(-c2ccncc2)s1`, the activity change, negative = inhibition in assay [1] is -14.1%; in assay [2], -37.7%; in assay [3] it was -4.59%; in assay [4], -45.5%; in assay [5] it was -14.9%.
Turning to `O=C(NCc1ccccc1F)c1ccc2c(=O)nc3c(-c4ccccc4)n[nH]n3c2c1`, the activity change, negative = inhibition in assay [1] is -20.9%; in assay [2], 1.06%; in assay [3], 3.94%; in assay [4], 1.17%; in assay [5] it was -1.98%.
The matching figures for `O=[S+]([O-])(Nc1ccccc1)c1ccc2c(c1)OCCN(Cc1cocn1)C2`: -1.68%, 0.511%, 2.1%, -6.23% and -2.14%.
The matching figures for `CCC(C(=O)NCc1ccccc1Cl)n1ccc2cc(S(=O)(=O)N3CCCCC3)ccc21` (configuration not stated): 1.21%, 0%, -1.29%, 0.784% and 1.49%.
Regarding `Cn1c(=O)c2ccc(C(=O)NC3CCCCC3)cc2n2c(SCC(=O)NC3CCCC3)nnc12`, the activity change, negative = inhibition in assay [1] was determined as 4.03%; in assay [2] it was 3.1%; in assay [3] it was 4.71%; in assay [4], 8.18%; in assay [5] it was 7.58%.
Consider `CCCn1c(=O)c2ccccc2n2c(=O)n(CC(=O)Nc3ccccc3OC)nc12`, for which the activity change, negative = inhibition in assay [1] worked out at 3.98%; in assay [2], 0%; in assay [3], 9.52%; in assay [4], 2.31%; in assay [5], 5.11%.
The like results for `CC(C)CCN1C(=O)c2ccc(-c3ccccc3)n2CC1(C)C(=O)NC1CCC(C)CC1` (configuration not stated) were, in that order, 7.75%, 0.69%, 3.48%, 1.88% and 5.92%.
The matching figures for `COC(=O)[C@H](c1ccccc1Cl)N1CCC2SC(=O)C=C2C1` (some centres not stated): -10.3%, -2.68%, -12.5%, -21.6% and -12.8%.
The like results for `COC(=O)c1cc2n(n1)CC(C)(C(=O)NC1CCCCCC1)N(c1cccc(Cl)c1)C2=O` (configuration not stated) were, in that order, 3.56%, 0%, 5.92%, 1.2% and 3.69%.
For the molecule `CC(C)CN1CCc2[nH]cnc2C12CCN(C(=O)c1n[nH]c3c1CCC3)CC2`, the activity change, negative = inhibition is -5.07% in assay [1]; 1.31% in assay [2]; -24.4% in assay [3]; -16.1% in assay [4]; -12.1% in assay [5].
Consider `NCc1ccc(Oc2ccccc2)cc1`, for which the activity change, negative = inhibition in assay [2] is 5.35%; in assay [4], -6.25%; in assay [5] it was 2.66%.
Regarding `Cc1cc2c(cc3n2CC(C)(C(=O)NC2CCCCC2)N(Cc2ccc(OC(C)C)cc2)C3=O)o1` (configuration not stated), the activity change, negative = inhibition was -7.05% in assay [1]; 4.3% in assay [2]; -6.32% in assay [3]; -6.28% in assay [4]; -6.65% in assay [5].
For `O=C(NOCC1CC1)c1ccc(F)c(F)c1Nc1ccc(I)cc1Cl`, the activity change, negative = inhibition in assay [1] is 0.952%; in assay [2], -6.38%; in assay [3], 7.83%; in assay [4], -29.9%; in assay [5], -1.67%.
The matching figures for `COc1ccc(-c2cc(N3CCCC(NC(=O)C4CCCC4)C3)n[nH]2)cc1` (configuration not stated): -7.67%, -0.344%, -0.024%, -1.75% and -0.313%.
For the molecule `O=C(Nc1ccccc1)N1CCC(Oc2ccccc2-c2nc(-c3ccccc3)no2)C1` (configuration not stated), the activity change, negative = inhibition in assay [1] is -5.66%; in assay [2], 0.093%; in assay [3], -5.09%; in assay [4], -2.76%; in assay [5] it was -3.97%.
The like results for `Cc1ccc(CNC(=O)Cn2nc3n(CCC(C)C)c(=O)c4ccccc4n3c2=O)cc1` were, in that order, 0.893%, 0%, 11.2%, 7.46% and 5.63%.
The like results for `CC1(C)CCC(c2ccc(Cl)cc2)=C(CN2CCN(c3ccc(C(=O)NS(=O)(=O)c4ccc(N[C@H](CCN5CCOCC5)CSc5ccccc5)c(S(=O)(=O)C(F)(F)F)c4)cc3)CC2)C1` were, in that order, -11%, -53.4%, -24.7%, -90.1% and -90.7%.
As for `O=C(COc1ccc(C(=O)c2ccccc2)cc1)NC1CCN(Cc2ccccc2)CC1`, the activity change, negative = inhibition in assay [1] is 0.112%; in assay [2] it was 4.28%; in assay [3], -6.99%; in assay [4] it was -19.3%; in assay [5], -2.44%.
`COCC(=O)N1CCC(c2nn(-c3ccccn3)c(=O)[nH]2)CC1`: the activity change, negative = inhibition in assay [1] was -5.09%; in assay [2], -16.1%; in assay [3], -4.33%; in assay [4], -16.4%; in assay [5] it was -8.56%.
The matching figures for `O=S(=O)(Cc1ccccc1)NC[C@H]1Cn2cc(-c3ccccc3)nc2CO1`: -4.35%, -3.31%, -2.67%, -5.13% and -1.72%.
The like results for `C=C[C@@]1(C)C=C2C(=O)C(O)=C3[C@](C)(C(=O)O)CC[C@@H]4C[C@]34[C@]2(O)C(=O)C1` were, in that order, 0%, -12.7%, 0.786%, -21% and -1.91%.
The like results for `CCOC(=O)c1cc2n(n1)CC(C)(C(=O)NCc1ccc(C)cc1)N(CCc1cccs1)C2=O` (configuration not stated) were, in that order, 2.36%, 0%, 6.31%, 1.95% and 0.469%.
For `COC(CCc1ccc(O)cc1)CC(=O)CCc1ccc(O)cc1` (configuration not stated), the activity change, negative = inhibition in assay [1] was 2.29%; in assay [2] it was 2.67%; in assay [3] it was 10.2%; in assay [4], -10.8%; in assay [5] it was -4.9%.
For `COc1cc2c(NC3CCN(C)CC3)nc(N3CCCN(C)CC3)nc2cc1OCc1ccccc1`, the activity change, negative = inhibition is -13.7% in assay [1], -26.3% in assay [3], -21.6% in assay [4] and 3.12% in assay [5].
For `CC(=O)OC[C@]12[C@H](OC(C)=O)[C@H](OC(=O)c3ccccc3)[C@@H]3[C@@H](OC(C)=O)[C@]1(OC3(C)C)[C@H](C)C[C@H](OC(C)=O)[C@@H]2OC(=O)c1ccccc1`, the activity change, negative = inhibition in assay [1] was 0%; in assay [2] it was -0.999%; in assay [3], 2.29%; in assay [4], -14.6%; in assay [5], 2.65%.
In the case of `O=C(Cn1ccc2cc(S(=O)(=O)N3CCCC3)ccc21)NCc1cccc(F)c1`, the activity change, negative = inhibition was -1.11% in assay [1]; 0.58% in assay [2]; 0.712% in assay [3]; -4.87% in assay [4]; -2.42% in assay [5].
Turning to `COc1ccccc1CNC(=O)C1(C)Cn2cnc(C(=O)Nc3cccc(Cl)c3C)c2C(=O)N1C1CC1` (configuration not stated), the activity change, negative = inhibition was -5.18% in assay [1]; 0% in assay [2]; 1.86% in assay [3]; -1.19% in assay [4]; -0.368% in assay [5].
